According to PubChem BioAssay (NCI):
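Protocol summary: plate cells (96-well), add compound at 5 concentrations, incubate 48 h, interpolate endpoints linearly. The concentration for 50% growth inhibition is given as GI50. TGI: concentration producing complete growth inhibition.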

tested on: NCI-H322M lung; assay: NCI tumour cell line growth inhibition, 48 h

Structure (SMILES) | GI50 [nM] | TGI [nM]
CC1(C)CC[C@]23CC[C@]4(C)[C@H](CC[C@@H]5[C@@]6(C)CC[C@H](N)C(C)(C)[C@@H]6CC[C@]54C)[C@H]2[C@H]1OC3=O | 1640 | 2990
CN(C)c1ccnc(CNCCSC2(c3ccc(C(F)(F)F)cc3)c3ccccc3CCc3ccccc32)c1 | 495 | 15100
CC(Nc1ncnc2ccc(-c3ccc4oc(N)nc4c3)cc12)c1ccccc1 (stereo not drawn) | 2160 | 6930
CC[C@]12C=CCN3CC[C@@]4(c5ccc(OC)cc5N(C)[C@H]4[C@@](O)(C(=O)OC)[C@@H]1OC(=O)CCCC[P+](c1ccc(F)cc1)(c1ccc(F)cc1)c1ccc(F)cc1)[C@@H]32 | 50000 | > 100000
